# Results from the supplement of paper PMC11417369.
# ± gives the standard deviation of the averaged measurements. The list shows a part of the results.
# Test system: PfAP2-I AP2 domain 3 (GST-tagged)
# Assay: gcPBM binding intensity (ln(normalized median fluorescence intensity)); higher = stronger DNA binding
# In short: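 GST-fused DNA-binding domains of P. falciparum, expressed in E. coli, were applied at about 25 μg on average for 1 h to an Agilent 4 × 180k array of primer-extended double-stranded 36-bp intergenic genomic probes and negative controls. Binding intensity is the highest Masliner-normalised natural-log median intensity across replicate spots of either probe orientation, measured with Alexa488 anti-GST antibody and a 488 nm scan.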
row,Sequence,gcPBM binding intensity (ln)
1,AAGTATTTCCTAAAATGTACATATAAATAAGTATAT [XGTACX_site1282],7.73 ± 0.41
2,AAATCTTAATAAAGTTGTACATAATTATGTTTAATA [XGTACX_site3348],7.59 ± 0.4
3,TTATTATTTATTTTTTATTATTATTATTTTTTTTTA [XGTACX_negctrl_site76],7.53 ± 0.46
4,CATATATTTTGAAACACACACATATAAAATATACAT [CACACA_site6664],8 ± 0.62
5,GAAAAGATTTAAAAATGTACAAAAGAAAAAAAAAAA [XGTACX_site6916],8.09 ± 0.92
6,TTAAAATTAAAATACGTACACACCTTATCTTTTTGG [CACACA_site7982],8.04 ± 0.3
7,AACCTCATGGACATATGTACACATATACAATTATTT [XGTACX_site6533],8.16 ± 0.54
8,TTATCTTACATATATCATTAAATCATATAACAAAAA [XGTACX_negctrl_site517],7.55 ± 0.48
9,TTATGTATTTTAAATGGTTTTATTATAAAGTTTAAT [CACACA_negctrl_site1470],7.52 ± 0.55
10,GTTATATTTAAAATAGTGCAATAAAAATAATAATAT,11.4 ± 0.67
11,CCTTTATAATTGGAAACACACATATAAAGTATATAT [CACACA_site3900],7.68 ± 0.59
12,CACAAATATACAAATACACACAAATATACGCATATA [CACACA_site2384],7.59 ± 0.4
13,ATATAATATATATACAAACACACAATTGTGTCCACA [CACACA_site1748],7.92 ± 0.4
14,AAAATACATGGACACACACACACACCGATATATATA [CACACA_site5885],8.28 ± 0.79
15,TACATAACTTTAATCACACACAAACAAACACATACA [CACACA_site6235],8.09 ± 0.14
16,AAATATACATATATATGTACATATAAATATATTTTA [XGTACX_site5266],7.58 ± 0.33
17,TAGTTTTCTTAAAGATGTACTTATTAAAAATAAACT [XGTACX_site1001],7.66 ± 0.2
18,TATAGATAAATTATTTGTACTTATAAAATTATTATA [XGTACX_site2870],7.42 ± 0.38
19,AATGATTGATTTTATTGTACGTACTCGGAATATGGT [XGTACX_site4976],8.02 ± 0.55

row,Sequence,gcPBM binding intensity (ln)
1,GAATTTTAAATAAACATATAAACAGAAAAAAAAAAA [TGCATGCA_negctrl_site149],8.14 ± 0.76
2,GTTCGAAGTATAATTTGTACATATAAAATGGTTCCC [XGTACX_site382],7.64 ± 0.58
3,ATATGTATTTATATATGTTTGAATTTTTTTTTTTTT [CACACA_negctrl_site5],7.34 ± 0.31
4,GAATAAATAAATAAATGTACATATATATTTATTTAT [XGTACX_site243],7.55 ± 0.35
5,ATTTGATCAACAAAACGTACACATATTTTCATGTGT [XGTACX_site447],7.68 ± 0.45
6,TATCTGTATTTATATACACACATATTCTTTTTACAC [CACACA_site4798],7.96 ± 0.52
7,AAAATCACAAAACACACACACACAAAAAAAAAAAAA [CACACA_site1443],8.01 ± 0.62
8,CACATATAGTTATATGCACACATCTTACACATATAT [CACACA_site3692],9.35 ± 0.26
9,CATGGGCAAATATTCTCACACATAAACATAAACATA [CACACA_site4597],7.9 ± 0.59
10,GTTTGAAGAACTATAAATGTATAAATAAAAGTTTAG [TGCATGCA_negctrl_site222],7.58 ± 0.59
11,AAAAAAGTAAAAAAAGCACACACGAAAAAAAATAAA [CACACA_site2233],8.04 ± 0.67
12,ATGGTGCAACATTATGCACACCGTTAAATAACTAAT [CACACA_site9280],11.5 ± 0.7
13,ATATAGTAAAATTATACACACATGAATTTTCCCATG [CACACA_site1770],7.68 ± 0.87
14,GGGAATTATGAAAAAAGTACAGAACAAAAGTAAAAG [XGTACX_site2861],8.27 ± 0.37
15,CATATATATATATATACACACACACCGTCCGTGTTA [CACACA_site8975],8.18 ± 0.52
16,ATTACATGATATATCACACACACATATAAATATATA [CACACA_site2830],8.19 ± 0.27
17,TACAAAAATGAAAAAAGTACATATCATTTAATATAA [XGTACX_site8066],7.63 ± 0.55
18,TTTTTTTTTTTTTTTTGTACTCATAAAAATATATTA [XGTACX_site3458],8.19 ± 0.79
19,AAAGTACAATCATAATCACACGTGTCTATTATATAC [CACACA_site8103],7.61 ± 0.51

row,Sequence,gcPBM binding intensity (ln)
1,TATATTTATTTATATGTATGCATGTCTGTATATGCT [TGCATGCA_site339],7.54 ± 0.62
2,CAAAGATAAAATGATGCACACAAAAGGGTGTAATAT [CACACA_site8499],8.97 ± 0.32
3,ACATGGTTTACACGTGCATGTGGATGACTGGACATT [TGCATGCA_site640],8.29 ± 0.91
4,TGAGAAAATTAAAAGGTGCTCAGAAATTTTATATTA [GTGCAC_site9954],8.6 ± 0.3
5,TTTTCTTTTAATATTTTTAATAATTATATTTTGAAA [XGTACX_negctrl_site495],7.46 ± 0.66
6,AATACGACAAACAAATGTACAAATAAATATTCGCGT [XGTACX_site6427],7.83 ± 0.64
7,AAAAATGTAAAGTGCGTGCACAAAATATTTGGAAAA,10.3 ± 0.26
8,AAATTACTAATGTGCACACATACTAACGTTTAAATA [CACACA_site3572],10.02 ± 0.078
9,TAAAATTTAAAATATACACACAAAAAGTTATTACAA [CACACA_site4080],7.58 ± 0.57
10,AAATTATTATGAAATGGAAAATGCATAAATTGTTTT [XGTACX_negctrl_site206],7.82 ± 0.79
11,ATTAAATAATAATAATGTACGTATTATATTAATACA [XGTACX_site5439],7.67 ± 0.15
12,CTCTTTAAAAATATGGGTACAAAAAAAAAAAAAATA [XGTACX_site6185],7.9 ± 0.28
13,ATTCTTTACTCATAAAATTATATTATATAAACTTTT [XGTACX_negctrl_site554],7.88 ± 0.57
14,AGGCCCTATGTTGTTACACACATAGAATGATACATC [CACACA_site1266],7.67 ± 0.7
15,AAAACAGTGACAACTCGTACTTATATTTTTTTTTGT [XGTACX_site4968],7.61 ± 0.69
16,AACTTATTAAGCCCTCCACATTTCTCTACTACAACT [CACACA_negctrl_site1552],8.12 ± 0.56
17,TCTATTTTTCTAATTTGTACATAGCTTTGAGTTAGT [XGTACX_site8977],7.78 ± 0.64
18,AACTTCTTTTTTATAACACACAAAATATATATACAA [CACACA_site282],8.15 ± 0.59
